Data published in patent publication US20250262222A1, “HETEROCYCLIC COMPOUNDS, COMPOSITIONS THEREOF, AND METHODS OF TREATMENT THEREWITH” (BeiGene Switzerland GmbH, priority 2022, published 2025).

Experiments:
Test in all cases: biochemical
[1] = biological target: GST-tagged GDP-loaded KRAS G12V (amino acids 1-169) (Homo sapiens, UniProt P01116, G12V)
[2] = biological target: GST-tagged GDP-loaded WT KRAS (amino acids 1-169) (Homo sapiens, UniProt P01116)
[3] = biological target: GST-tagged GDP-loaded KRAS G12D (amino acids 1-188) (Homo sapiens, UniProt P01116, G12D)
[4] = biological target: GST-tagged GDP-loaded WT KRAS (amino acids 1-188) (Homo sapiens, UniProt P01116)

Row | Structure (SMILES) | IC50 [1] | IC50 [2] | IC50 [3] | IC50 [4]
1 | N#Cc1c(N)sc2c(F)ccc(-c3c(Cl)c4c5c(nc(OC[C@@]67CCCN6C[C@H](F)C7)nc5c3F)N3CCOC[C@H]3CO4)c12 (single isomer, unassigned) [Example 14-Isomer 1] | 15 nM | 14 nM | – | –
2 | N#Cc1c(N)sc2c(F)ccc(-c3c(Cl)c4c5c(nc(OC[C@@]67CCCN6C[C@H](F)C7)nc5c3F)N3CCOC[C@H]3CO4)c12 (single isomer, unassigned) [Example 14-Isomer 2] | 0.61 nM | 0.51 nM | – | –
3 | N#Cc1c(N)sc2c(F)ccc(-c3cc4c5c(nc(OC[C@@]67CCCN6C[C@H](F)C7)nc5c3F)N3CCOC[C@H]3CO4)c12 [Example 1, 2-amino-7-fluoro-4-((S)-4-fluoro-2-(((2R,7aS)-2-fluorotetrahydro-1H-pyrrolizin-7a(5H)-yl)methoxy)-8a,9,11,12-tetrahydro-8H-[1,4]oxazino[3′,4′:3,4][1,4]oxazepino[5,6,7-de]quinazolin-5-yl)benzo[b]thiophene-3-carbonitrile] | 0.93 nM | 1.3 nM | – | –
4 | C#Cc1c(F)ccc2cc(O)cc(-c3cc4c5c(nc(OC[C@@]67CCCN6C[C@H](F)C7)nc5c3F)N3CCOC[C@H]3CO4)c12 [Example 2, 5-ethynyl-6-fluoro-4-((S)-4-fluoro-2-(((2R,7aS)-2-fluorotetrahydro-1H-pyrrolizin-7a(5H)-yl)methoxy)-8a,9,11,12-tetrahydro-8H-[1,4]oxazino[3′,4′:3,4][1,4]oxazepino[5,6,7-de]quinazolin-5-yl)naphthalen-2-ol] | 1.7 nM | 4.3 nM | – | –
5 | Nc1cc(Cl)c(C(F)(F)F)c(-c2nc3c4c(nc(OC[C@@]56CCCN5C[C@H](F)C6)nc4c2F)N2CCOC[C@H]2CO3)c1 [Example 3, 3-chloro-5-((S)-1-fluoro-11-(((2R,7aS)-2-fluorotetrahydro-1H-pyrrolizin-7a(5H)-yl)methoxy)-5a,6,8,9-tetrahydro-5H-4,7-dioxa-3,9a,10,12-tetraazabenzo[4,5]cyclohepta[1,2,3-de]naphthalen-2-yl)-4-(trifluoromethyl)aniline] | 3 nM | 8 nM | – | –
6 | Oc1cc(Cl)c(C2CC2)c(-c2nc3c4c(nc(OC[C@@]56CCCN5C[C@H](F)C6)nc4c2F)N2CCOC[C@H]2CO3)c1 [Example 6, 3-chloro-4-cyclopropyl-5-((S)-1-fluoro-11-(((2R,7aS)-2-fluorotetrahydro-1H-pyrrolizin-7a(5H)-yl)methoxy)-5a,6,8,9-tetrahydro-5H-4,7-dioxa-3,9a,10,12-tetraazabenzo[4,5]cyclohepta[1,2,3-de]naphthalen-2-yl)phenol] | 2.7 nM | 3.7 nM | – | –
7 | Cc1cc(N)c(F)c(-c2nc3c4c(nc(OCC5(C(F)F)COC5)nc4c2F)N2C[C@H]4CC[C@H](N4)[C@H]2CCO3)c1C(F)(F)F [Example 54, 3-((6aR,7S,10R)-13-((3-(difluoromethyl)oxetan-3-yl)methoxy)-1-fluoro-5,6,6a,7,8,9,10,11-octahydro-4-oxa-3,11a,12,14,15-pentaaza-7,10-methanocyclohepta[4,5]cyclo-octa[1,2,3-de]naphthalen-2-yl)-2-fluoro-5-methyl-4-(trifluoromethyl)aniline] | – | – | 15 nM | > 1000 nM
8 | Nc1cc(Cl)c(C(F)(F)F)c(-c2nc3c4c(nc(OCC56CCC(CC5)O6)nc4c2F)N2C[C@H]4CC[C@H](N4)[C@H]2CCO3)c1 [Example 55, 3-((6aR,7S,10R)-13-((7-oxabicyclo[2.2.1]heptan-1-yl)methoxy)-1-fluoro-5,6,6a,7,8,9,10,11-octahydro-4-oxa-3,11a,12,14,15-pentaaza-7,10-methanocyclohepta[4,5]cyclo-octa[1,2,3-de]naphthalen-2-yl)-5-chloro-4-(trifluoromethyl)aniline] | – | – | 4.2 nM | 684 nM
9 | Cc1cc(N)cc(-c2nc3c4c(nc(OCC56CCC(C(F)F)(C5)OC6)nc4c2F)N2C[C@H]4CC[C@H](N4)[C@H]2CCO3)c1C(F)(F)F [Example 56, 3-((6aR,7S,10R)-13-((1-(difluoromethyl)-2-oxabicyclo[2.2.1]heptan-4-yl)methoxy)-1-fluoro-5,6,6a,7,8,9,10,11-octahydro-4-oxa-3,11a,12,14,15-pentaaza-7,10-methanocyclohepta[4,5]cyclo-octa[1,2,3-de]naphthalen-2-yl)-5-methyl-4-(trifluoromethyl)aniline] | – | – | 2.4 nM | 563 nM
10 | Nc1cc(Cl)c(C(F)(F)F)c(-c2nc3c4c(nc(OCC5(C(F)F)CCC5)nc4c2F)N2C[C@H]4CC[C@H](N4)[C@H]2CCO3)c1 [Example 58, 3-chloro-5-((6aR,7S,10R)-13-((1-(difluoromethyl)cyclobutyl)methoxy)-1-fluoro-5,6,6a,7,8,9,10,11-octahydro-4-oxa-3,11a,12,14,15-pentaaza-7,10-methanocyclohepta[4,5]cyclo-octa[1,2,3-de]naphthalen-2-yl)-4-(trifluoromethyl)aniline] | – | – | 15 nM | > 1000 nM
11 | Nc1cc(Cl)c(C(F)(F)F)c(-c2nc3c4c(nc(OCC5(CO)CC5(F)F)nc4c2F)N2C[C@H]4CC[C@H](N4)[C@H]2CCO3)c1 (stereo partly drawn) [Example 59, (1-((((6aR,7S,10R)-2-(5-amino-3-chloro-2-(trifluoromethyl)phenyl)-1-fluoro-5,6,6a,7,8,9,10,11-octahydro-4-oxa-3,11a,12,14,15-pentaaza-7,10-methanocyclohepta[4,5]cyclo-octa[1,2,3-de]naphthalen-13-yl)oxy)methyl)-2,2-difluorocyclopropyl)methanol] | – | – | 0.44 nM | 85 nM
12 | COC1(COc2nc3c4c(nc(-c5cc(N)cc(Cl)c5C(F)(F)F)c(F)c4n2)OCC[C@@H]2[C@@H]4CC[C@H](CN32)N4)COC1 [Example 61, 3-chloro-5-((6aR,7S,10R)-1-fluoro-13-((3-methoxyoxetan-3-yl)methoxy)-5,6,6a,7,8,9,10,11-octahydro-4-oxa-3,11a,12,14,15-pentaaza-7,10-methanocyclohepta[4,5]cyclo-octa[1,2,3-de]naphthalen-2-yl)-4-(trifluoromethyl)aniline] | – | – | 0.46 nM | 354 nM
13 | COCC1(COc2nc3c4c(nc(-c5cc(N)cc(Cl)c5C(F)(F)F)c(F)c4n2)OCC[C@@H]2[C@@H]4CC[C@H](CN32)N4)COC1 [Example 62, 3-chloro-5-((6aR,7S,10R)-1-fluoro-13-((3-(methoxymethyl)oxetan-3-yl)methoxy)-5,6,6a,7,8,9,10,11-octahydro-4-oxa-3,11a,12,14,15-pentaaza-7,10-methanocyclohepta[4,5]cyclo-octa[1,2,3-de]naphthalen-2-yl)-4-(trifluoromethyl)aniline] | – | – | 0.74 nM | 307 nM
14 | Nc1cc(Cl)c(C(F)(F)F)c(-c2nc3c4c(nc(OCC5(C(F)F)CCOC5)nc4c2F)N2C[C@H]4CC[C@H](N4)[C@H]2CCO3)c1 (stereo partly drawn) [Example 63, 3-chloro-5-((6aR,7S,10R)-13-((3-(difluoromethyl)tetrahydrofuran-3-yl)methoxy)-1-fluoro-5,6,6a,7,8,9,10,11-octahydro-4-oxa-3,11a,12,14,15-pentaaza-7,10-methanocyclohepta[4,5]cyclo-octa[1,2,3-de]naphthalen-2-yl)-4-(trifluoromethyl)aniline] | – | – | 0.48 nM | 257 nM
15 | N#CC1(COc2nc3c4c(nc(-c5cc(N)cc(Cl)c5C(F)(F)F)c(F)c4n2)OCC[C@@H]2[C@@H]4CC[C@H](CN32)N4)CCOCC1 [Example 64, 4-((((6aR,7S,10R)-2-(5-amino-3-chloro-2-(trifluoromethyl)phenyl)-1-fluoro-5,6,6a,7,8,9,10,11-octahydro-4-oxa-3,11a,12,14,15-pentaaza-7,10-methanocyclohepta[4,5]cyclo-octa[1,2,3-de]naphthalen-13-yl)oxy)methyl)tetrahydro-2H-pyran-4-carbonitrile] | – | – | 1.1 nM | 113 nM
16 | CC1(COc2nc3c4c(nc(-c5cc(N)cc(Cl)c5C(F)(F)F)c(F)c4n2)OCC[C@@H]2[C@@H]4CC[C@H](CN32)N4)CCOCC1 [Example 65, 3-chloro-5-((6aR,7S,10R)-1-fluoro-13-((4-methyltetrahydro-2H-pyran-4-yl)methoxy)-5,6,6a,7,8,9,10,11-octahydro-4-oxa-3,11a,12,14,15-pentaaza-7,10-methanocyclohepta[4,5]cyclo-octa[1,2,3-de]naphthalen-2-yl)-4-(trifluoromethyl)aniline] | – | – | 2 nM | 688 nM
17 | CC1(COc2nc3c4c(nc(-c5cc(N)cc(Cl)c5C(F)(F)F)c(F)c4n2)OCC[C@@H]2[C@@H]4CC[C@H](CN32)N4)COC1 [Example 66, 3-chloro-5-((6aR,7S,10R)-1-fluoro-13-((3-methyloxetan-3-yl)methoxy)-5,6,6a,7,8,9,10,11-octahydro-4-oxa-3,11a,12,14,15-pentaaza-7,10-methanocyclohepta[4,5]cyclo-octa[1,2,3-de]naphthalen-2-yl)-4-(trifluoromethyl)aniline] | – | – | 0.69 nM | 204 nM
18 | Nc1cc(Cl)c(C(F)(F)F)c(-c2nc3c4c(nc(OCC56COCC(C5)C6)nc4c2F)N2C[C@H]4CC[C@H](N4)[C@H]2CCO3)c1 [Example 67, 3-((6aR,7S,10R)-13-((3-oxabicyclo[3.1.1]heptan-1-yl)methoxy)-1-fluoro-5,6,6a,7,8,9,10,11-octahydro-4-oxa-3,11a,12,14,15-pentaaza-7,10-methanocyclohepta[4,5]cyclo-octa[1,2,3-de]naphthalen-2-yl)-5-chloro-4-(trifluoromethyl)aniline] | – | – | 1.3 nM | 276 nM
19 | CCc1cc(N)cc(-c2nc3c4c(nc(OCC56COC(C5)C6)nc4c2F)N2C[C@H]4CC[C@H](N4)[C@H]2CCO3)c1C(F)(F)F [Example 68, 3-((6aR,7S,10R)-13-((2-oxabicyclo[2.1.1]hexan-4-yl)methoxy)-1-fluoro-5,6,6a,7,8,9,10,11-octahydro-4-oxa-3,11a,12,14,15-pentaaza-7,10-methanocyclohepta[4,5]cycloocta[1,2,3-de]naphthalen-2-yl)-5-ethyl-4-(trifluoromethyl)aniline] | – | – | 5.5 nM | > 1000 nM
